Data as given in patent US20220135678A1, “METHODS AND COMPOSITIONS TO IMPROVE THE SAFETY AND EFFICACY OF CELLULAR THERAPIES” (University of Southern California, priority 2019, published 2022).

Assays:
human CD34+ cells = assay: Engraftment of control or CD33-AMR HSCs in NSG mice; format: in vivo
Protocol: More detailed functional evaluation of AMR HSCs is performed in comparison with control HSC in vivo. […] Cell morphology is analyzed by cytospin and characteristic cell surface markers (CD1 lb, CD 15, CD 14, CD 16, CD45, CD66b, and HLA-DR) by flow cytometry.
Twelve weeks later, the percentage of hCD45 in peripheral blood (engraftment) is measured. […] Bone marrow is harvested from NSG mice after 16 weeks of primary engraftment then transferred into secondary recipients and analyzed after 12 additional weeks.

Molm14, an AML cell line = assay: NSG mice engrafted with HSPCs, injected with Molm14 AML, treated with CD33 CAR-T; settings: mouse, in vivo
Protocol: AML disease burden is measured by bioluminescent imaging (BLI), while human HSPCs are measured by flow cytometry of the peripheral blood.

HSPCs = assay: In vitro myeloid differentiation of control or CD33-AMR HSPCs, phagocytosis; format: cell-based, human; settings: differentiated in vitro with myeloid cytokines
Description: Human cells obtained from HSPC-engrafted mouse bone marrow show characteristic morphologic features of normal stem cell (blast), myeloid progenitor (promyelocyte), and terminal effector cells (monocytes and neutrophils).

B1: CD33-AMR: antigen masking receptor targeting CD33 expressed in CD34+ stem cells by lentiviral gene transfer (protein)
chain: MALPVTALLLPLALLLHAARPDEIVLTQSPGSLAVSPGERVTMSCKSSQSVFFSSSQKNYLAWYQQIPGQSPRLLIYWASTRESGVPDRFTGSGSGTDFTLTISSVQPEDLAIYYCHQYLSSRTFGQGTKLEIKRGGGGSGGGGSGGGGSQVQLQQPGAEVVKPGASVKMSCKASGYTFTSYYIHWIKQTPGQGLEWVGVIYPGNDDISYNQKFQGKATLTADKSSTTAYMQLSSLTSEDSAVYYCAREVRLRYFDVWGQGTTVTVSSTRAKPTTTPAPRPPTPAPTIASQPLSLRPEACRPAAGGAVHTRGLDFACDIYIWAPLAGTCGVLLLSLVITLYCKRGRKK
human CD45+ engraftment in bone marrow versus control (human CD34+ cells; bone marrow harvested after 16 weeks): equal levels | CD33 expression on human myeloid cells in engrafted mice (human CD34+ cells; mouse, in vivo): significantly reduced | myeloid development in engrafted NSG mice (human CD34+ cells; mouse, in vivo): normal myeloid development | myeloid cells in peripheral blood, spleen and bone marrow after CD33 CAR-T treatment of AML (Molm14, an AML cell line): persistent CD 14+ myeloid cells | phagocytosis percentages versus control HSPCs (HSPCs): No significant differences
